# Data published in PubChem BioAssay AID662 (National Center for Advancing Translational Sciences (NCATS), 2007).
# About 1,800 (2.5%) of roughly 71,000 compounds were called active. The shares of active, inactive and inconclusive entries below differ from those in the screen. Calls follow the shape of the dose curve; as a rule, active = well fitted activation curve with a large enough effect in the signal ratio, with a control signal flat (not every such curve was filed as active); inconclusive = small, poorly fitted or top-dose-only effect, or effect the other way, or a change in a side signal; inactive = flat fitted curve, though single readings scatter; the % refers to the signal ratio. Potencies of inconclusive entries are doubtful fits and often do not repeat.
# Assay: Cell signaling CRE-BLA (Fsk stim); as to activity change, negative = inhibition: % of control where 0% means no effect
# Conditions: CHO CRE-bla reporter (cAMP response element driving beta-lactamase), forskolin EC10, beta-lactamase ratio; activity change, negative = inhibition: at 38.2 µM (top of the series) unless noted
# Method in brief: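 AC50 values, positive or negative, reflect shifts in EC10 NKH 477-induced CRE-bla reporter activity in CHO cells. Incubation lasted 3 h at 37 °C before CCF4 substrate (2 h, room temperature) and ratiometric 460/530 nm reading.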
# Potency is read from the fitted curve at half-maximal effect; tags tell the direction and shape of the fitted curve.
SMILES,"activity change, negative = inhibition",Potency
Cc1nn(-c2ccccc2)c2c1P(=O)(O)/C(=C1\N(C)c3ccccc3C1(C)C)C=N2,inconclusive: -6.63% [fluorescent],–
CC(=O)Nc1ccc(NC(=O)c2ccccc2N(C)S(C)(=O)=O)cc1,inconclusive: -6.26%,–
Nc1c(C(=O)c2ccc(F)cc2)oc2ccccc12,inconclusive: 29.9%,–
c1ccc(Nc2nc3ccccc3[nH]2)nc1,–,"inconclusive: 1.58 µM [falling, full curve, poor fit]"
CN1CCCC2(CCN(S(=O)(=O)c3ccccc3)CC2)C1,inactive: -1.79%,–
CCOC(=O)c1sc(NC(=O)CSc2nnc(-c3ccco3)n2CC)c(C(=O)OCC)c1C,inactive: 5.56%,–
O=C(CCNS(=O)(=O)c1ccc2c(c1)CCC(=O)N2)Nc1ccc2c(c1)OCCO2,–,"inconclusive: 25.1 µM [rising, single point]"
COC(=O)c1ccsc1NC(=O)CSc1nnnn1Cc1ccccc1,inconclusive: -16.2%,–
CCc1ccccc1NC(=O)CSc1nnc([C@@H](NC(=O)OC(C)(C)C)C(C)C)o1,inconclusive: -9.45%,–
O=C(CC1CC2CCC1C2)NCc1cccs1 (configuration not stated),inactive: -4.53%,–
Cc1ccc(C(=O)NC2CCS(=O)(=O)C2)cc1S(=O)(=O)N1CCCCC1 (configuration not stated),inconclusive: -17.7%,–
Cn1c(=O)[nH]c(=O)c2c1nc(Br)n2CCCSc1nc2ccccc2o1,–,active: 10 µM
CN=C(NC#N)NCCSC[C@H]1N=CN=C1C,inactive: -0.0782% [at 17.1 µM],–
CCNc1nc(OC)nc(SCC(N)=O)n1,inactive: 6.18%,–
Cc1ccc(NC(=O)C2CCN(S(=O)(=O)c3cccc4nonc34)CC2)nc1,inconclusive: -7.88%,–
CCOC(=O)N1CCN(C(=O)CSCC(=O)Nc2nc(-c3ccc(OC)cc3)cs2)CC1,–,"inconclusive: 0.126 µM [rising, full curve, poor fit]"
CCOC(=O)Cc1csc(NC(=O)c2ccco2)n1,–,"inconclusive: 0.0501 µM [rising, full curve, poor fit]"
COc1ccc(CN(C(=O)CSc2nnc(-c3ccc(F)cc3)o2)c2ccc(F)cc2)cc1,inconclusive: 12.8%,–
N#Cc1c2c(c(N3CCN(CCO)CC3)n3c1nc1ccccc13)CCCC2,–,"inconclusive: 12.6 µM [rising, partial curve]"
Cc1ccc2cc3cc(C(=O)NCCC(C)C)oc3nc2c1,inconclusive: -2.56%,–
CCC(=O)N1CCc2cc(S(=O)(=O)NCCCN(CC)Cc3ccccc3)ccc21,inconclusive: -30.5%,–
CC(C)OCCCN1CN(S(=O)(=O)c2ccccc2)c2nc3ccccc3nc21,–,"inconclusive: 10 µM [rising, single point]"
N=c1n(Cc2ccccc2)c2ccccc2n1CC(O)COc1ccccc1 (configuration not stated),inconclusive: -14.9%,–
CC(=O)Nc1nc(-c2ccc(Br)s2)cs1,inactive: 7.65%,–
c1ccc(CNc2ncnc3ccccc23)cc1,inconclusive: -26.5%,–
O=C(CC1OC(=O)c2ccccc21)NC1CCCCC1 (configuration not stated),inconclusive: 11.2%,–

SMILES,"activity change, negative = inhibition",Potency
COc1cc(NC(=O)c2ccco2)c(OC)cc1NC(=O)Nc1cccc(Cl)c1,inconclusive: 1.43% [fluorescent],–
Cc1cccc2sc(NC(=O)Cn3cccc3)nc12,inactive: 2.01%,–
CCCn1c(-c2ccc(F)cc2)nc2c(NCCCCN3CCCC3)nc(C)nc21,inconclusive: 25.6%,–
FC(F)(F)c1ccccc1-c1cc(NCCN2CCOCC2)ncn1,inactive: -3.59%,–
CCn1c(SCC(=O)Nc2nc(C)cs2)nnc1-c1cccnc1,inactive: 17.1%,–
Cc1[nH]c(=O)[nH]c(=O)c1CSc1nnc(CCCCCNC(=O)OC(C)(C)C)o1,inconclusive: -6.88%,–
C=CCOC(=O)Nc1c(C(=O)OC)[nH]c2ccc(Cl)cc12,inconclusive: 21.8%,–
Cc1ccc(OCc2nnc(SCC(=O)Nc3cc(C)on3)n2C)cc1,inconclusive: -2.14%,–
COc1ccc(OC)c(S(=O)(=O)N2CCC(C(=O)Nc3ccc(C)c(C)c3)CC2)c1,inconclusive: -27.6%,–
Cc1noc(C)c1CN1C(=O)NC(Cc2ccccc2)(Cc2ccccc2)C1=O,–,"inconclusive: 20 µM [falling, single point]"
NC(=O)Nn1c(CCC(=O)O)ccc1-c1ccc(Br)cc1,inactive: -1.68%,–
O=C(CN(C(=O)CNS(=O)(=O)c1ccccc1)c1ccc2c(c1)OCCO2)NCc1ccco1,inconclusive: -0.156%,–
O=C(Nc1cccc(C(F)(F)F)c1)c1cc(S(=O)(=O)N2CCCCC2)ccc1N1CCOCC1,inconclusive: 2.73%,–
C/C(Cl)=C\CSc1nnc2n(N)c(=O)c3ccccc3n12,inconclusive: 27.8%,–
CCOC(=O)CCc1c(C)c2ccc(OCC(=O)N(CC)CC)c(C)c2oc1=O,inactive: -0.0129%,–
CCOc1ccccc1C(=O)Nc1nccs1,–,"inconclusive: 12.6 µM [rising, partial curve]"
Cn1c(Cc2ccccc2)nnc1SCC(=O)Nc1ccccc1N1CCOCC1,inconclusive: -1.29%,–
Cc1cc(C)n(-c2nc(NCc3cccnc3)c3c4c(sc3n2)COC(C)(C)C4)n1,–,"inconclusive: 5.01 µM [rising, partial curve]"
COc1cccc(NC(=O)CCS(=O)(=O)c2cccs2)c1,inconclusive: -7.29%,–
CC(C)NC(=O)CSc1nnc(-c2ccc(C(C)(C)C)cc2)n1C,–,"inconclusive: 0.631 µM [rising, single point]"
COC(=O)Cn1nc(-c2ccc(C)c(S(=O)(=O)N(C)C)c2)c2ccccc2c1=O,inconclusive: 28.3% [at 7.6 µM],–
O=C(N1CCCC1)n1c(Cc2ccccc2)nc2ccccc21,inconclusive: -3.27%,–
O=C(O)CN(c1ccc2c(c1)OCCO2)S(=O)(=O)c1ccccc1,–,"inconclusive: 0.0251 µM [rising, full curve]"
CCOc1ccc2c(c1)c1nnc(SCC3CCCO3)nc1n2C (configuration not stated),–,"inconclusive: 10 µM [rising, partial curve]"
c1ccc2[nH]c(-c3cscn3)nc2c1,–,"inconclusive: 12.6 µM [rising, partial curve]"
Cc1ccc(S(=O)(=O)NCC(=O)N(CCc2ccccc2)CC(=O)NCc2ccco2)cc1,inconclusive: -28.9%,–
